Measurements as given in PubChem BioAssay AID686978 (National Center for Advancing Translational Sciences (NCATS), 2013).
The whole screen tested about 420,000 compounds, of which about 64,000 (15%) were called active. Inconclusive means that the source gave no clear call. Such entries were picked first, then a sample of the others. The call rests on the fitted dose curve; in most records, active means well fitted inhibition curve with a large enough effect; inconclusive means small, poorly fitted or top-dose-only effect; inactive means flat fitted curve, though single readings scatter. Potencies of inconclusive entries are left out as doubtful fits. Some structures have more than one record in an assay (separate samples or runs), and their calls can disagree.

assay: qHTS for Inhibitors of human tyrosyl-DNA phosphodiesterase 1 (TDP1): qHTS in cells in absence of CPT; details: DT40 Tdp1-/- hTDP1 cells, no CPT, ATP luminescence, 48 h; activity change, negative = growth inhibition: at 46.2 µM (top of the series) unless noted; further: nearly all actives have a fitted effect of over 55% in size
Summary of the method: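 DT40 Tdp1-/-;hTDP1 cells, no CPT (DMSO vehicle only), 400 cells/well; compounds pin-transferred; ≥48 hr, 37 °C; CellTiter-Glo 30 min RT dark, luminescence read.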
On the % scale 0 is the no-effect control and ±100 the full control effect; potency means the concentration at half of the fitted maximal effect; tags describe the fitted curve by direction and shape.

SMILES | Potency | activity change, negative = growth inhibition
COc1ccc(/C=C2/SC(=O)N(CCNC(=O)C3COc4ccccc4O3)C2=O)cc1 (configuration not stated) | active: 20.6 µM | –
c1ccc2c(CSCCc3ccncc3)cccc2c1 | active: 20.6 µM | –
CC(C)CN(CCNC(=O)CN1C(=O)CSc2ccc(S(=O)(=O)N3CCOCC3)cc21)CC(C)C | active: 20.6 µM | –
COc1cc2c(cc1OC)C(c1ccccc1F)NCC2 (configuration not stated) | – | inconclusive: -31.8% [inhibitor]
Cc1ccsc1/C=N\NC(=O)c1cc(C(C)(C)C)[nH]n1 | – | inconclusive: -30.1% [inhibitor]
COc1ccc(NC(=O)[C@@H]2CCCN2S(=O)(=O)c2cccc3cccnc23)cc1 | – | inconclusive: -30.8% [inhibitor]
COc1ccc(Cc2nc3ccc(C(=O)NCCc4ncccc4C)cc3o2)cc1OC | active: 23.1 µM | –
COc1ccc(OC)c(Nc2nc(-c3c(C)nc4ncccn34)cs2)c1 | inconclusive [inhibitor, single point] | –
CCCCC(=O)N(C)c1c(CC)nc2c(OCC(=O)c3ccc(Cl)cc3Cl)cccn12 | inconclusive [inhibitor, partial curve, poor fit] | –
COC(=O)c1ccn(-c2nc(-c3ccco3)cc(C(F)(F)F)n2)n1 | – | inconclusive: -30.3% [inhibitor]
O=C(CCCNC(=O)c1ccc(Cl)cc1)Nc1nccs1 | inactive | –
Cc1n[nH]c(C)c1S(=O)(=O)N(CC(=O)N1CCc2ccccc21)c1ccc(C(C)C)cc1 | inconclusive [inhibitor, single point] | –
O=c1[nH]nc(Cc2ncc(C(F)(F)F)cc2Cl)c2ccccc12 | active: 16.4 µM | –
COc1ccccc1/C=C/C(=O)OCC(=O)NC(=O)NC1CCCC1 | inactive | –
CC(C)OCCCNC(=S)NNC(=O)c1ccc(Cl)c(Cl)c1 | inactive | –
COc1ccccc1C=NN=C(NN=Cc1ccccc1OC)NN=Cc1ccccc1OC | inconclusive [inhibitor, single point] | –
O=C(Nc1c(-c2ccc(F)cc2)nc2ccccn12)c1ccccc1F | inconclusive [inhibitor, single point] | –
c1ccc(CN(Cc2ccccc2)C(c2ccnc3ccccc23)c2nnnn2-c2ccc3c(c2)OCCO3)cc1 (configuration not stated) | active: 23.1 µM | –
CN1CCc2c(sc(NC(=O)c3ccc(C(=O)c4ccccc4)cc3)c2C(N)=O)C1 | inactive | –
Cc1ccc(NC(=O)c2sc3nc4c(c(-c5ccco5)c3c2N)CCC4)cc1 | inconclusive [inhibitor, single point] | –
CS(=O)(=O)Nc1ccc(C(=O)Nc2ccc(S(=O)(=O)N3CCCC3)cc2)cc1 | – | inconclusive: -32% [inhibitor]
COc1ccc(CN2CCc3ccccc3C2)c(OC)c1 | – | inconclusive: -31.9% [inhibitor]
COc1cc(/C=N/NC(=O)CCN2CCN(C(c3ccccc3)c3ccccc3)CC2)ccc1O | active: 11.6 µM | –
COc1ccc(C2CC(=O)c3cnn(-c4nc(C)cc(C)n4)c3C2)cc1OC (configuration not stated) | inconclusive [inhibitor, partial curve] | –

SMILES | Potency | activity change, negative = growth inhibition
CCOC(=O)c1cccc(NC(=O)c2ccc3nc(Cc4ccccc4)oc3c2)c1 | active: 16.4 µM | –
COc1ccc(C2=NN(c3ccc(C(=O)O)cc3)C(c3ccc(OC)c(OC)c3)C2)cc1 (configuration not stated) | inconclusive [inhibitor, full curve] | –
CC(C)N1C(=O)S/C(=C/c2ccc(Sc3nc4ccccc4[nH]3)o2)C1=O | active: 10.3 µM | –
COC(C(=O)NCc1ccccc1C)c1ccccc1 (configuration not stated) | inactive | –
Cn1c(C(=O)NCc2ccco2)cc2c(=O)[nH]c3ccccc3c21 | inconclusive [inhibitor, single point] | –
O=C1CCc2cc(NS(=O)(=O)c3ccccc3)cc3c2N1CC3 | inactive | –
CC(=O)NCc1ccc(C(=O)O)cc1 | inactive | –
Cn1c(N)c(C(=O)COC(=O)C2CCCN2C(=O)c2cccs2)c(=O)n(C)c1=O (configuration not stated) | inactive | –
COc1ccc(C2=NOC(c3nnc(-c4ccccc4)o3)C2)cc1 (configuration not stated) | inactive | –
Cn1c(Cn2nnc3ccccc32)nnc1SCC(=O)c1ccccc1F | inconclusive [inhibitor, partial curve, poor fit] | –
CC1(C(=O)NCc2cccc(C(F)(F)F)c2)CCN1CCc1ccccc1 (configuration not stated) | inconclusive [inhibitor, single point] | –
COc1ccc(CCN(C)Cc2cccc3ccccc23)cc1OC | inactive | –
COc1ccc(OCC(O)CN2CCN(c3ccc(Cl)cc3)CC2)cc1 (configuration not stated) | inconclusive [inhibitor, partial curve] | –
O=C(CC1CCOCC1)Nc1ccc(Cl)c(Cl)c1 | inconclusive [inhibitor, single point] | –
O=c1ccn([C@@H]2O[C@H](CNCc3ccc(-c4cc(C(F)(F)F)ccc4Cl)o3)[C@@H](O)[C@H]2O)c(=O)[nH]1 | inconclusive [inhibitor, single point] | –
C=CCC1[C@H](C)[C@H]2[C@@H]3CC[C@@H](C3)[C@H]2CN1S(=O)(=O)c1ccc(C)cc1 (some centres not stated) | inconclusive [inhibitor, single point] | –
COc1ccccc1N1CCN(C(=O)CSc2n[nH]c(-c3ccccc3)n2)CC1 | inconclusive [inhibitor, single point] | –
COc1cccc(C2=NOC(C(=O)NC(C)(C)C)C2)c1 (configuration not stated) | inactive | –
Cc1cccc(NC(=O)CSC(N)=O)c1C | active: 18.4 µM | –
C[C@@H]1COC(=O)[C@H](Cc2ccc(F)cc2)CC/C=C/C[C@@H](CC(=O)N[C@@H](CO)Cc2ccccc2)C(=O)N1 | active: 25.9 µM | –
Cc1cc2ccccc2n1-c1ccc(C(=O)N2CCC(C(=O)NCc3ccccc3Cl)CC2)s1 | inactive | –
Cn1c(N)c(C(C[N+](=O)[O-])c2ccccc2Cl)c(=O)n(C)c1=O (configuration not stated) | active: 4.61 µM | –
COc1ccc(CNC(=O)c2csc(Cc3ccccc3)n2)cc1 | inactive | –
Cc1nn(C(C)C(=O)N2CCOCC2)c(=O)c2nn(-c3ccccc3)c(C)c12 (configuration not stated) | inactive | –

SMILES | Potency | activity change, negative = growth inhibition
COCCCNCCCCOc1ccc(Br)cc1C | active: 23.1 µM | –
CN1CCc2c(sc(NC(=O)C3COc4ccccc4O3)c2C(N)=O)C1 (configuration not stated) | inconclusive [inhibitor, single point] | –
COc1cccc(/C=C/c2onc(C)c2S(=O)(=O)N2CCC(C(=O)N3CCC(C)CC3)CC2)c1 | active: 16.4 µM | –
Cc1ccc(CNC(=O)c2ccc(N3CCC4(CC3)CC(c3cccc(Br)c3)=NO4)c([N+](=O)[O-])c2)cc1 | inconclusive [inhibitor, full curve] | –
O=C(c1ccco1)N1CCN(C(c2cccs2)c2nnnn2C2CCCC2)CC1 (configuration not stated) | inconclusive [inhibitor, single point] | –
CC(CNC(=O)Cc1ccc(NC(=O)N2CCSc3ncccc32)cc1)c1ccccc1 (configuration not stated) | inconclusive [inhibitor, single point] | –
COC(=O)N1[C@H](C)C=C[C@]1(Cc1ccccc1)C(=O)NCCCNc1ncc(C(F)(F)F)cc1Cl | inconclusive [inhibitor, single point] | –
COc1ccc(C(=O)Nc2cccc(C(=O)O)c2)cc1S(=O)(=O)N1CCCC1 | inactive | –
CCOC(=O)c1sc(NC(=O)C2CC(=O)N(c3ccccc3OC)C2)nc1C (configuration not stated) | inactive | –
CCOC(=O)[C@@H]1[C@H]2COc3ccccc3[C@@H]2N2C(=O)N(c3ccc(Br)cc3)C(=O)[C@@]12C | inconclusive [inhibitor, single point] | –
Cc1[nH]c2ccccc2c1C(=O)C(C)OC(=O)c1ccccc1NCCO (configuration not stated) | inconclusive [inhibitor, single point] | –
O=C(NC1CCCC1)C1c2ccccc2OCC(=O)N1Cc1ccco1 (configuration not stated) | inactive | –
COc1cccc(NC(=O)c2ccc3nc(C)sc3c2)c1 | inconclusive [inhibitor, single point] | –
Cc1cc(C)cc(NC(=O)C2C3C=CC4(O3)C2C(=O)N(CCCN2CCCC2)C4C(=O)NC2CCCC(C)C2C)c1 (configuration not stated) | inconclusive [inhibitor, partial curve] | –
CN(C)S(=O)(=O)c1ccc(C(=O)NCc2nnc(SCC(=O)Nc3ccc(F)cc3)n2-c2ccc(F)cc2)cc1 | – | inconclusive: -12.9% [inhibitor]
O=C(NC1CC2CCC(C1)N2Cc1ccccc1)c1cccc(F)c1 (configuration not stated) | inactive | –
COc1cc(NC(=O)c2ccc(-c3ccc(F)c(F)c3)c3ccoc23)cc(OC)c1OC | active: 4.11 µM | –
CCOC(=O)c1ccccc1N1C(=O)C2Sc3[nH]c(=O)sc3C(/C=C/c3ccccc3)C2C1=O (configuration not stated) | inconclusive [inhibitor, single point] | –
CCN(c1ccccc1)S(=O)(=O)c1ccc(F)cc1 | inconclusive [inhibitor, partial curve] | –
COC(=O)c1scc(-c2ccc(C)cc2)c1S(=O)(=O)Nc1ccc(N(C)C)cc1 | active: 14.6 µM | –
COc1ccc(-c2cn3c(n2)sc2cc(C(=O)Nc4cccc(OC)c4)ccc23)cc1 | inconclusive [inhibitor, full curve, poor fit] | –
CCOC(=O)c1ccc(NC(=S)Nc2ccc(C)cc2)cc1 | inconclusive [inhibitor, single point] | –
Cc1ccccc1NCc1cccn1-c1nnc(N2CCC(C)CC2)s1 | inconclusive [inhibitor, single point] | –
Cc1ccc(S(=O)(=O)N2CCN(C(=O)COc3ccc(Br)cc3)CC2)cc1 | inconclusive [inhibitor, single point] | –
